Results: patent US20100075953A1, “SUBSTITUTED PIPERAZINES, (1,4) DIAZEPINES, AND 2,5-DIAZABICYCLO (2.2.1) HEPTANES AS HISTAMINE H1 AND/OR H3 ANTAGONISTS OR HISTAMINE H3 REVERSE ANTAGONISTS” (Glaxo Group Limited, priority 2002, published 2010)
Some of these results come from one statement about several compounds together.

Molecular target: histamine H3 receptor (Homo sapiens, UniProt Q9Y5N1)
Assay: Histamine H3 functional antagonist assay
Details: membranes of CHO K1 cells expressing human H3, [35S]GTPgammaS SPA, histamine 0.3 μM

Chain of histamine H3 receptor (Q9Y5N1 whole entry): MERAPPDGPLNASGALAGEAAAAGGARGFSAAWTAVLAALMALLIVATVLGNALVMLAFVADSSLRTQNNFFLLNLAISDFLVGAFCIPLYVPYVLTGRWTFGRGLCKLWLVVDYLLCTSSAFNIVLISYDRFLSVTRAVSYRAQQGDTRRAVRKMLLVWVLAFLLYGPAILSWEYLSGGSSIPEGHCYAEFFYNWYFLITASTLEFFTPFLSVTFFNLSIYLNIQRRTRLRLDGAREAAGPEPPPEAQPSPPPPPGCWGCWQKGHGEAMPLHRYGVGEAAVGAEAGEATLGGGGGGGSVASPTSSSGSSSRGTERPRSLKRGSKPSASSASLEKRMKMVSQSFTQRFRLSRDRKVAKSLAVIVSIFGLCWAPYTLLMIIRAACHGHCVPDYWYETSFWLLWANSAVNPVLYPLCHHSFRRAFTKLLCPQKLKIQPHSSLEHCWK

O=C(c1ccc2c(c1)OCO2)N1CCCN(Cc2ccc(OCCCN3CCCCC3)cc2)CC1 [Example E12, 1-Benzo[1,3]dioxol-5-yl-1-{4-[4-(3-piperidin-1-yl-propoxy)-benzyl]-[1,4]diazepan-1-yl}-methanone]
antagonism in the histamine H3 functional antagonist assay (pKb): > 8.4 pKb
antagonism in the histamine H3 functional antagonist assay (pKb) (listed as Example E12): > 6.5 pKb

O=C(c1ccc(F)c(F)c1)N1CCN(c2ccc(OCCCN3CCCCC3)cc2)CC1 [Example E368, 1-[(3,4-Difluorophenyl)carbonyl]-4-(4-{[3-(1-piperidinyl)propyl]oxy}phenyl)piperazine]
antagonism in the histamine H3 functional antagonist assay (pKb): > 8.4 pKb
antagonism in the histamine H3 functional antagonist assay (pKb) (listed as Example 368): > 6.5 pKb

Cc1cc(C(=O)N2CCN(c3ccc(OCCCN4CCCCC4)cc3)CC2)ccc1Cl [Example E369, 1-[(4-Chloro-3-methylphenyl)carbonyl]-4-(4-{[3-(1-piperidinyl)propyl]oxy}phenyl)piperazine]
antagonism in the histamine H3 functional antagonist assay (pKb): > 6.5 pKb

O=C(c1ccc(F)cc1C(F)(F)F)N1CCN(c2ccc(OCCCN3CCCCC3)cc2)CC1 [Example E357, 1-{[4-Fluoro-2-(trifluoromethyl)phenyl]carbonyl}-4-(4-{[3-(1-piperidinyl)propyl]oxy}phenyl)piperazine]
antagonism in the histamine H3 functional antagonist assay (pKb): > 6.5 pKb

CC(=O)c1ccc(C(=O)N2CCN(c3ccc(OCCCN4CCCCC4)cc3)CC2)s1 [Example E415, 1-(5-{[4-(4-{[3-(1-Piperidinyl)propyl]oxy}phenyl)-1-piperazinyl]carbonyl}-2-thienyl)ethanone]
antagonism in the histamine H3 functional antagonist assay (pKb): > 8.4 pKb
antagonism in the histamine H3 functional antagonist assay (pKb) (listed as Example 415): > 6.5 pKb

O=C(C1CC1)N1CCN(C(=O)N2CCN(c3ccc(OCCCN4CCCCC4)cc3)CC2)CC1 [Example E286, 1-(Cyclopropylcarbonyl)-4-{[4-(4-{[3-(1-piperidinyl)propyl]oxy}phenyl)-1-piperazinyl]carbonyl}piperazine]
antagonism in the histamine H3 functional antagonist assay (pKb): > 6.5 pKb

O=C(Cc1cccnc1)N1CCN(c2ccc(OCCCN3CCCCC3)cc2)CC1 [Example E377, 1-(4-{[3-(1-Piperidinyl)propyl]oxy}phenyl)-4-(3-pyridinylacetyl)piperazine]
antagonism in the histamine H3 functional antagonist assay (pKb): > 6.5 pKb

O=C(c1ccc(C(=O)N2CCN(c3ccc(OCCCN4CCCCC4)cc3)CC2)cc1)N1CCCC1 [Example E374, 1-(4-{[3-(1-Piperidinyl)propyl]oxy}phenyl)-4-{[4-(1-pyrrolidinylcarbonyl)phenyl]carbonyl}piperazine]
antagonism in the histamine H3 functional antagonist assay (pKb): > 6.5 pKb

NC(=O)C1CCN(C(=O)N2CCN(c3ccc(OCCCN4CCCCC4)cc3)CC2)CC1 [Example E277, 1-{[4-(4-{[3-(1-Piperidinyl)propyl]oxy}phenyl)-1-piperazinyl]carbonyl}-4-piperidinecarboxamide]
antagonism in the histamine H3 functional antagonist assay (pKb): > 8.4 pKb
antagonism in the histamine H3 functional antagonist assay (pKb) (listed as Example 277): > 6.5 pKb

O=C(c1cc(C(F)(F)F)cc(C(F)(F)F)c1)N1CCN(c2ccc(OCCCN3CCCCC3)cc2)CC1 [Example E336, 1-{[3,5-bis(Trifluoromethyl)phenyl]carbonyl}-4-(4-{[3-(1-piperidinyl)propyl]oxy}phenyl)piperazine]
antagonism in the histamine H3 functional antagonist assay (pKb): > 6.5 pKb

N#Cc1ccc(NC(=O)N2CCN(c3ccc(OCCCN4CCCCC4)cc3)CC2)cc1 [Example E282, N-(4-Cyanophenyl)-4-(4-{[3-(1-piperidinyl)propyl]oxy}phenyl)-1-piperazinecarboxamide]
antagonism in the histamine H3 functional antagonist assay (pKb): > 6.5 pKb

C[C@@H]1CN(c2ccc(OCCCN3CCCCC3)cc2)C[C@H](C)N1C(=O)c1ccncc1 [Example E317, (2R,6S)-2,6-Dimethyl-4-(4-{[3-(1-piperidinyl)propyl]oxy}phenyl)-1-(4-pyridinylcarbonyl)piperazine]
antagonism in the histamine H3 functional antagonist assay (pKb): > 8.4 pKb
antagonism in the histamine H3 functional antagonist assay (pKb) (listed as Example 317): > 6.5 pKb

COc1ccccc1C(=O)N1CCN(Cc2ccc(OCCCN3CCCCC3)cc2)CC1 [Example E6, 1-(2-Methoxy-phenyl)-1-{4-[4-(3-piperidin-1-yl-propoxy)-benzyl]-piperazin-1-yl}-methanone]
antagonism in the histamine H3 functional antagonist assay (pKb): > 6.5 pKb

CS(=O)(=O)c1ccc(C(=O)N2CCN(c3ccc(OCCCN4CCCCC4)cc3)CC2)c(Cl)c1 [Example E361, 1-{[2-Chloro-4-(methylsulfonyl)phenyl]carbonyl}-4-(4-{[3-(1-piperidinyl)propyl]oxy}phenyl)piperazine]
antagonism in the histamine H3 functional antagonist assay (pKb): > 8.4 pKb
antagonism in the histamine H3 functional antagonist assay (pKb) (listed as Example 361): > 6.5 pKb

N#Cc1ccc(C(=O)N2CCCN(Cc3ccc(OCCCN4CCCCC4)cc3)CC2)cc1 [Example E18, 4-(1-{4-[4-(3-Piperidin-1-yl-propoxy)-benzyl]-[1,4]diazepan-1-yl}-methanoyl)-benzonitrile]
antagonism in the histamine H3 functional antagonist assay (pKb): > 8.4 pKb
antagonism in the histamine H3 functional antagonist assay (pKb) (listed as Example E18): > 6.5 pKb

CN(C)c1ccc(C(=O)N2CCN(c3ccc(OCCCN4CCCCC4)cc3)CC2)cc1 [Example E373, N,N-Dimethyl-4-{[4-(4-{[3-(1-piperidinyl)propyl]oxy}phenyl)-1-piperazinyl]carbonyl}aniline]
antagonism in the histamine H3 functional antagonist assay (pKb): > 6.5 pKb

O=C(c1ccc(Cl)cc1)N1CCN(c2ccc(OCCCN3CCCCC3)cc2)CC1 [Example E343, 1-[(4-Chlorophenyl)carbonyl]-4-(4-{[3-(1-piperidinyl)propyl]oxy}phenyl)piperazine]
antagonism in the histamine H3 functional antagonist assay (pKb): > 6.5 pKb

N#CCc1nc(C(=O)N2CCN(c3ccc(OCCCN4CCCCC4)cc3)CC2)cs1 [Example E418, (4-{[4-(4-{[3-(1-Piperidinyl)propyl]oxy}phenyl)-1-piperazinyl]carbonyl}-1,3-thiazol-2-yl)acetonitrile]
antagonism in the histamine H3 functional antagonist assay (pKb): > 6.5 pKb

Cc1nnsc1C(=O)N1CCN(c2ccc(OCCCN3CCCCC3)cc2)CC1 [Example E414, 1-[(4-Methyl-1,2,3-thiadiazol-5-yl)carbonyl]-4-(4-{[3-(1-piperidinyl)propyl]oxy}phenyl)piperazine]
antagonism in the histamine H3 functional antagonist assay (pKb): > 8.4 pKb
antagonism in the histamine H3 functional antagonist assay (pKb) (listed as Example 414): > 6.5 pKb

O=C(c1ccc(Cl)c(Cl)c1)N1CCN(c2cccc(OCCCN3CCCCC3)c2)CC1 [Example E39, 1-(3,4-Dichloro-phenyl)-1-{4-[3-(3-piperidin-1-yl-propoxy)-phenyl]-piperazin-1-yl}-methanone]
antagonism in the histamine H3 functional antagonist assay (pKb): > 6.5 pKb

O=C(c1ccc(C(=O)N2CCN(c3ccc(OCCCN4CCCCC4)cc3)CC2)cc1)N1CCNCC1 [Example E434, 1-{[4-(1-piperazinylcarbonyl)phenyl]carbonyl}-4-(4-{[3-(1-piperidinyl)propyl]oxy}phenyl)piperazine]
antagonism in the histamine H3 functional antagonist assay (pKb): > 8.4 pKb
antagonism in the histamine H3 functional antagonist assay (pKb) (listed as Example 434): > 6.5 pKb

COC(=O)c1ccc(C(=O)N2CCN(c3ccc(OCCCN4CCCCC4)cc3)CC2)cc1 [Example E432, Methyl 4-{[4-(4-{[3-(1-piperidinyl)propyl]oxy}phenyl)-1-piperazinyl]carbonyl}benzoate]
antagonism in the histamine H3 functional antagonist assay (pKb) (listed as Example 432): > 6.5 pKb

O=C(c1cc2ccccc2o1)N1CCN(c2ccc(OCCCN3CCCCC3)cc2)CC1 [Example E403, 1-(1-Benzofuran-2-ylcarbonyl)-4-(4-{[3-(1-piperidinyl)propyl]oxy}phenyl)piperazine]
antagonism in the histamine H3 functional antagonist assay (pKb): > 6.5 pKb

O=C(Cn1ccccc1=O)N1CCN(c2ccc(OCCCN3CCCCC3)cc2)CC1 [Example E383, 1-{2-Oxo-2-[4-(4-{[3-(1-piperidinyl)propyl]oxy}phenyl)-1-piperazinyl]ethyl}-2(1H)-pyridinone]
antagonism in the histamine H3 functional antagonist assay (pKb): > 6.5 pKb

O=C(c1ccc(C(=O)N2CCN(c3ccc(OCCCN4CCCCC4)cc3F)CC2)cc1)N1CCCC1 [Example E313, 1-(2-Fluoro-4-{[3-(1-piperidinyl)propyl]oxy}phenyl)-4-{[4-(1-pyrrolidinylcarbonyl)phenyl]carbonyl}piperazine]
antagonism in the histamine H3 functional antagonist assay (pKb): > 6.5 pKb

O=C(CCc1ccco1)N1CCN(c2ccc(OCCCN3CCCCC3)cc2)CC1 [Example E426, 1-[3-(2-Furanyl)propanoyl]-4-(4-{[3-(1-piperidinyl)propyl]oxy}phenyl)piperazine]
antagonism in the histamine H3 functional antagonist assay (pKb): > 6.5 pKb

C[C@@H]1CCC[C@H](C)N1C(=O)N1CCN(c2ccc(OCCCN3CCCCC3)cc2)CC1 [Example E276, 1-{[(2R,6S)-2,6-Dimethyl-1-piperidinyl]carbonyl}-4-(4-{[3-(1-piperidinyl)propyl]oxy}phenyl)piperazine]
antagonism in the histamine H3 functional antagonist assay (pKb): > 6.5 pKb

COC[C@H]1CCCN1C(=O)c1ccc(C(=O)N2CCN(c3ccc(OCCCN4CCCCC4)cc3)CC2)cc1 [Example E444, 1-{[4-({(2R)-2-[(Methyloxy)methyl]-1-pyrrolidinyl}carbonyl)phenyl]carbonyl}-4-(4-{[3-(1-piperidinyl)propyl]oxy}phenyl)piperazine]
antagonism in the histamine H3 functional antagonist assay (pKb): > 8.4 pKb
antagonism in the histamine H3 functional antagonist assay (pKb) (listed as Example 444): > 6.5 pKb
